{"source": "PubChem BioAssay (NCI)", "tested_on": "MDA-MB-468 breast", "assay": "NCI-60 cell line screen, 48 h", "note": "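Where inhibition never reached the appropriate level, the endpoint shown equals the highest concentration tested. Otherwise, values were interpolated linearly from a five-concentration, 48-hour dose response in 96-well plates. GI50 = concentration required for 50% inhibition of growth.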 Certain results were filed several times, with different values. The other results are left out here. An entry can have further records. A record mostly stands for its own series of concentrations, which the source does not state; some values may only mark the edge of a range.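 Definition used: TGI = concentration required for complete inhibition of growth.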"}
{"compound": "COC(=O)C12CC(NC(=O)c3csc([C@@H](C[C@H](C(C)C)N(C)C(=O)[C@@H](NC(=O)[C@H]4CCCCN4C)C(C)C)OC(C)=O)n3)(C1)C2", "values": [{"measurement": "GI50", "value": "0.226 nM and 3.33 nM"}, {"measurement": "TGI", "value": "0.862 nM and > 33.3 µM"}]}
